# Results as given in the supplement of paper PMC11741623.
# The list shows a part of the results. Interaction screen of human proteins with wild-type SARS-CoV-2 proteins by split-DHFR complementation in yeast, 1 µg/mL methotrexate. Value = fitness of the pair (three or more lineages) minus that of the viral protein without a human partner, on a scale set by negative (0) and fused positive (1) controls, mean of up to three cultures; higher = more likely to interact. Active = false discovery rate below 0.05 (one-sided t-test) in at least one culture. Nearly all pairs are not hits, and differences among them are mostly noise (correlation between cultures about 0.3); most hits were seen in one culture only. Human sequences are the Swiss-Prot entries looked up by gene name; the clone may be another isoform. NSP2 values were corrected by the authors for a growth advantage. Listed are human proteins with a hit and a random twelfth of the others.
# B1: ARHGAP19, Q14CB8 (protein)
# chain: MATEAQSEGEVPARESGRSDAICSFVICNDSSLRGQPIIFNPDFFVEKLRHEKPEIFTELVVSNITRLIDLPGTELAQLMGEVDLKLPGGAGPASGFFRSLMSLKRKEKGVIFGSPLTEEGIAQIYQLIEYLHKNLRVEGLFRVPGNSVRQQILRDALNNGTDIDLESGEFHSNDVATLLKMFLGELPEPLLTHKHFNAHLKIADLMQFDDKGNKTNIPDKDRQIEALQLLFLILPPPNRNLLKLLLDLLYQTAKKQDKNKMSAYNLALMFAPHVLWPKNVTANDLQENITKLNSGMAFMIKHSQKLFKAPAYIRECARLHYLGSRTQASKDDLDLIASCHTKSFQLAKSQKRNRVDSCPHQEETQHHTEEALRELFQHVHDMPESAKKKQLIRQFNKQSLTQTPGREPSTSQVQKRARSRSFSGLIKRKVLGNQMMSEKKKKNPTPESVAIGELKGTSKENRNLLFSGSPAVTMTPTRLKWSEGKKEGKKGFL
# B2: AMTN, Q6UX39 (protein)
# chain: MRSTILLFCLLGSTRSLPQLKPALGLPPTKLAPDQGTLPNQQQSNQVFPSLSLIPLTQMLTLGPDLHLLNPAAGMTPGTQTHPLTLGGLNVQQQLHPHVLPIFVTQLGAQGTILSSEELPQIFTSLIIHSLFPGGILPTSQAGANPDVQDGSLPAGGAGVNPATQGTPAGRLPTPSGTDDDFAVTTPAGIQRSTHAIEEATTESANGIQ
# B3: ACAP3, Q96P50 (protein)
# chain: MTVEFEECVKDSPRFRATIDEVETDVVEIEAKLDKLVKLCSGMVEAGKAYVSTSRLFVSGVRDLSQQCQGDTVISECLQRFADSLQEVVNYHMILFDQAQRSVRQQLQSFVKEDVRKFKETKKQFDKVREDLELSLVRNAQAPRHRPHEVEEATGALTLTRKCFRHLALDYVLQINVLQAKKKFEILDSMLSFMHAQSSFFQQGYSLLHQLDPYMKKLAAELDQLVIDSAVEKREMERKHAAIQQRTLLQDFSYDESKVEFDVDAPSGVVMEGYLFKRASNAFKTWNRRWFSIQNSQLVYQKKLKDALTVVVDDLRLCSVKPCEDIERRFCFEVLSPTKSCMLQADSEKLRQAWVQAVQASIASAYRESPDSCYSERLDRTASPSTSSIDSATDTRERGVKGESVLQRVQSVAGNSQCGDCGQPDPRWASINLGVLLCIECSGIHRSLGVHCSKVRSLTLDSWEPELLKLMCELGNSAVNQIYEAQCEGAGSRKPTASSSRQDKEAWIKDKYVEKKFLRKAPMAPALEAPRRWRVQKCLRPHSSPRAPTARRKVRLEPVLPCVAALSSVGTLDRKFRRDSLFCPDELDSLFSYFDAGAAGAGPRSLSSDSGLGGSSDGSSDVLAFGSGSVVDSVTEEEGAESEESSGEADGDTEAEAWGLADVRELHPGLLAHRAARARDLPALAAALAHGAEVNWADAEDEGKTPLVQAVLGGSLIVCEFLLQNGADVNQRDSRGRAPLHHATLLGRTGQVCLFLKRGADQHALDQEQRDPLAIAVQAANADIVTLLRLARMAEEMREAEAAPGPPGALAGSPTELQFRRCIQEFISLHLEES
# B4: AMBP, P02760 (protein)
# chain: MRSLGALLLLLSACLAVSAGPVPTPPDNIQVQENFNISRIYGKWYNLAIGSTCPWLKKIMDRMTVSTLVLGEGATEAEISMTSTRWRKGVCEETSGAYEKTDTDGKFLYHKSKWNITMESYVVHTNYDEYAIFLTKKFSRHHGPTITAKLYGRAPQLRETLLQDFRVVAQGVGIPEDSIFTMADRGECVPGEQEPEPILIPRVRRAVLPQEEEGSGGGQLVTEVTKKEDSCQLGYSAGPCMGMTSRYFYNGTSMACETFQYGGCMGNGNNFVTEKECLQTCRTVAACNLPIVRGPCRAFIQLWAFDAVKGKCVLFPYGGCQGNGNKFYSEKECREYCGVPGDGDEELLRFSN
# Target: SARS-CoV-2 M
# Assay: yeast fitness gain over the viral ORF with no human partner (scaled fitness); higher = more likely to interact
# Method: (§1)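 Split mouse DHFR complementation in pooled diploid yeast: human ORFeome clones carry one fragment and viral ORFs the other; barcoded lineages compete in 1 µg/mL methotrexate and fitness is read by barcode sequencing in up to three cultures.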
row,Binder,yeast fitness gain
1,B1,inactive: 0.0524
2,B2,inactive: 0.0493
3,B3,inactive: -0.00177
4,B4,inactive: 0.0632

# Target: SARS-CoV-2 N
# Assay: as above
# Method: as §1
row,Binder,yeast fitness gain
1,B1,inactive: -0.178
2,B4,inactive: -0.163

# Target: SARS-CoV-2 NSP13
# Assay: as above
# Method: as §1
row,Binder,yeast fitness gain
1,B1,inactive: -0.0296
2,B2,inactive: -0.0571
3,B3,inactive: 0.0174
4,B4,inactive: 0.00907

# Target: SARS-CoV-2 NSP15
# Assay: as above
# Method: as §1
row,Binder,yeast fitness gain
1,B1,inactive: -0.0784
2,B4,inactive: -0.00422

# Target: SARS-CoV-2 NSP16
# Assay: as above
# Method: as §1
row,Binder,yeast fitness gain
1,B1,inactive: 0.095
2,B2,inactive: 0.0435
3,B4,inactive: 0.093

# Target: SARS-CoV-2 NSP2
# Assay: as above
# Method: as §1
row,Binder,yeast fitness gain
1,B1,inactive: -0.253
2,B2,inactive: -0.25
3,B3,inactive: -0.269
4,B4,inactive: -0.108

# Target: SARS-CoV-2 NSP5
# Assay: as above
# Method: as §1
row,Binder,yeast fitness gain
1,B1,inactive: 0.162
2,B2,inactive: -0.0133
3,B4,inactive: -0.0338

# Target: SARS-CoV-2 ORF10
# Assay: as above
# Method: as §1
row,Binder,yeast fitness gain
1,B1,inactive: 0.0778
2,B2,inactive: 0.0333
3,B3,inactive: 0.0541
4,B4,inactive: -0.0263

# Target: SARS-CoV-2 ORF3B
# Assay: as above
# Method: as §1
row,Binder,yeast fitness gain
1,B1,inactive: 0.0148
2,B2,inactive: -0.0312
3,B3,inactive: 0.0862
4,B4,inactive: 0.0243

# Target: SARS-CoV-2 ORF7A
# Assay: as above
# Method: as §1
row,Binder,yeast fitness gain
1,B1,inactive: -0.0253
2,B2,inactive: -0.0556
3,B3,inactive: -0.0813
4,B4,inactive: 0.0249

# Target: SARS-CoV-2 S
# Assay: as above
# Method: as §1
row,Binder,yeast fitness gain
1,B1,inactive: 0.0237
2,B2,inactive: -0.0131
3,B3,inactive: 0.0375
4,B4,inactive: 0.0733

# Target: SARS-CoV-2 NSP1
# Assay: as above
# Method: as §1
row,Binder,yeast fitness gain
1,B2,inactive: 0.0789
2,B3,inactive: -0.00423
3,B4,inactive: -0.0908

# Target: SARS-CoV-2 NSP10
# Assay: as above
# Method: as §1
row,Binder,yeast fitness gain
1,B2,inactive: -0.0834
2,B4,inactive: -0.142

# Target: SARS-CoV-2 NSP12
# Assay: as above
# Method: as §1
row,Binder,yeast fitness gain
1,B2,inactive: -0.00713
2,B3,inactive: -0.039
3,B4,inactive: -0.0325

# Target: SARS-CoV-2 NSP14
# Assay: as above
# Method: as §1
row,Binder,yeast fitness gain
1,B2,inactive: 0.0588
2,B3,inactive: -0.0731

# Target: SARS-CoV-2 NSP6
# Assay: as above
# Method: as §1
row,Binder,yeast fitness gain
1,B2,inactive: 0.107
2,B3,inactive: -0.00552
3,B4,inactive: -0.0924

# Target: SARS-CoV-2 NSP7
# Assay: as above
# Method: as §1
row,Binder,yeast fitness gain
1,B2,inactive: 0.0919
2,B4,inactive: 0.0208

# Target: SARS-CoV-2 NSP8
# Assay: as above
# Method: as §1
row,Binder,yeast fitness gain
1,B2,inactive: -0.0641
2,B3,inactive: 0.0351
3,B4,inactive: 0.00916

# Target: SARS-CoV-2 NSP9
# Assay: as above
# Method: as §1
row,Binder,yeast fitness gain
1,B2,inactive: -0.0718
2,B4,inactive: 0.0679

# Target: SARS-CoV-2 ORF3A
# Assay: as above
# Method: as §1
row,Binder,yeast fitness gain
1,B2,inactive: 0.0341
2,B3,inactive: 0.0658
3,B4,inactive: -0.0764

# Target: SARS-CoV-2 ORF6
# Assay: as above
# Method: as §1
row,Binder,yeast fitness gain
1,B2,inactive: 0.0602
2,B3,inactive: -0.0759
3,B4,inactive: -0.00802

# Target: SARS-CoV-2 ORF7B
# Assay: as above
# Method: as §1
row,Binder,yeast fitness gain
1,B2,inactive: 0.125
2,B3,inactive: -0.00329
3,B4,inactive: -0.14

# Target: SARS-CoV-2 ORF8
# Assay: as above
# Method: as §1
row,Binder,yeast fitness gain
1,B2,inactive: 0.0316
2,B3,inactive: -0.027
3,B4,inactive: 0.028

# Target: SARS-CoV-2 ORF9B
# Assay: as above
# Method: as §1
row,Binder,yeast fitness gain
1,B2,inactive: 0.0549
2,B3,inactive: 0.13
3,B4,inactive: 0.0589

# Target: SARS-CoV-2 ORF9Bwu (the 73-codon ORF)
# Assay: as above
# Method: as §1
row,Binder,yeast fitness gain
1,B2,inactive: -0.0693
2,B3,inactive: -0.0221
3,B4,inactive: -0.024

# Target: SARS-CoV-2 NSP4
# Assay: as above
# Method: as §1
row,Binder,yeast fitness gain
1,B3,inactive: 0.00893
